Here are results for 47 compounds from PubChem BioAssay AID1508642 (National Center for Advancing Translational Sciences (NCATS), 2021).

In all, about 43,000 compounds went through this assay and about 200 (0.47%) were called active. Roughly 12% stayed inconclusive and do not appear here. Calls follow the shape of the dose curve; as a rule, active = well fitted cell-killing curve with a large enough effect; inconclusive = small, poorly fitted or top-dose-only effect, or effect the other way; inactive = flat fitted curve, though single readings scatter. The list shows a part of the results.
% is scaled to controls: 0 for no effect and ±100 for the full control effect.

The nature of this test: Cell viability qHTS assay in S16 Pmp22-F2sN cells. Also: nearly all actives have a fitted effect of over 65% in size. The note with it: S16 Pmp22-F2sN Schwann cells (luciferase reporters placed in the Pmp22 gene) viability, CellTiter-Glo, 24 h; series mostly up to 57.5 µM; activity change, negative = cytotoxicity: at the top concentration. Put shortly:
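Seed 500-1,000 S16 Pmp22-F2sN cells per well in phenol-red-free DMEM with 10% heat-inactivated FBS; pin-add 23 nL compound; incubate 24 h at 37C; add CellTiter-Glo, wait 15 min protected from light; read luminescence.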
(qHTS replaces the single test concentration by a dilution series.)
For the compound `COc1ccc(CNC(=O)c2cc(Nc3ccc(OC)cc3OC)nc3ccccc23)cc1`, the “activity change, negative = cytotoxicity” value is inactive: -22.2%.

Regarding `CCOC(=O)c1ccc(NC(=O)c2ccc3c(c2)CCN3S(=O)(=O)c2ccc(Cl)cc2)cc1`, the “activity change, negative = cytotoxicity” value is inactive: 1.44%.

With `O=C(CSc1n[nH]c(-c2ccccc2Cl)n1)N1CCN(c2ccc(F)cc2)CC1`, the “activity change, negative = cytotoxicity” value is inactive: -0.46%.

Take `CCOC(=O)c1ccc(N2C(=O)c3n[nH]c(C)c3C2c2ccc(C(C)C)cc2)cc1` (configuration not stated): the “activity change, negative = cytotoxicity” value was inactive: 2.63%.

With `CC(C)c1nn2c(=O)cc(COC(=O)c3ccc(NC(=O)c4ccccc4Cl)cc3)nc2s1`, the “activity change, negative = cytotoxicity” value was inactive: -2.49%.

In the case of `CCOc1ccc(NC(=O)c2oc3ccccc3c2NC(=O)Cc2ccc(OC)c(OC)c2)cc1`, the “activity change, negative = cytotoxicity” value is inactive: 6.01%.

Regarding `COc1ccc2oc(=O)cc(CN3CCN(C(=O)c4ccccc4)CC3)c2c1`, the “activity change, negative = cytotoxicity” value is inactive: -3.38%.

Regarding `O=C(Nc1ccc(O)c(-c2nc3ccccc3o2)c1)c1cccs1`, the “activity change, negative = cytotoxicity” value was inactive: 14.7%.

Turning to `COc1ccccc1CNc1nc(-c2ccco2)nn1S(=O)(=O)c1ccc(C)cc1`, the “activity change, negative = cytotoxicity” value was inactive: -11.8%.

Regarding `Clc1ccc(CN2CCc3nc(Nc4ccc5c(c4)OCCO5)ncc3C2)cc1`, the “activity change, negative = cytotoxicity” value was inactive: 0.847%.

With `CCOc1ccccc1CN(CCc1ccc2c(c1)OCO2)Cc1cc(OC)c(OC)cc1OC`, the “activity change, negative = cytotoxicity” value was inactive: 5.25%.

Regarding `CC(C)NC(=O)c1nn(C)c2c1CS(=O)(=O)c1ccccc1-2`, the “activity change, negative = cytotoxicity” value is inactive: -4.56%.

For the compound `COC(=O)c1cc(Cl)ccc1NC(=O)Cn1c(C)cc(C)c(C#N)c1=O`, the “activity change, negative = cytotoxicity” value was inactive: -0.151%.

Take `O=C(c1ccc(F)cc1)N1c2ncnn2C2(CCCCC2)[C@@H]2CCCC[C@@H]21`: the “activity change, negative = cytotoxicity” value was inactive: -21.2%.

As to `COc1ccc(CNC(=O)C(=O)NCC(c2cccs2)S(=O)(=O)c2ccc(C)cc2)cc1` (configuration not stated), the “activity change, negative = cytotoxicity” value was inactive: 18.3%.

For `CCn1c(SCC(=O)Nc2cccc(Cl)c2)nnc1-c1nonc1NC(C)=O`, the “activity change, negative = cytotoxicity” value was inactive: -0.531%.

As to `Cc1ccc(-c2nsc(NC(=O)c3oc4cc(C)c(Cl)cc4c3C)n2)cc1`, the “activity change, negative = cytotoxicity” value was inactive: -0.844%.

Consider `Cc1ccccc1C(=O)NCc1ccc2c(c1)CCN2C(=O)c1ccccc1`, for which the “activity change, negative = cytotoxicity” value was inactive: 0.879%.

Turning to `CCn1c(=O)c2sccc2n2c(CCCC(=O)N3CCN(c4ccccc4OC)CC3)nnc12`, the “activity change, negative = cytotoxicity” value is inactive: 9.11%.

With `CCOC(=O)N1CCC(NC(=O)c2cnn(-c3cccc(C)c3)c2C2CCN(C(=O)OC(C)(C)C)CC2)CC1`, the “activity change, negative = cytotoxicity” value was inactive: 10.4%.

Regarding `CC(=O)c1cc(-c2ccc(F)cc2)n(CCC(=O)NCc2ccc(C)cc2)c1C`, the “activity change, negative = cytotoxicity” value was inactive: -1.64%.

In the case of `CC(=O)c1ccc(N2CCN(C(=O)Cn3ncc4c3-c3ccccc3OC4)CC2)cc1`, the “activity change, negative = cytotoxicity” value was inactive: -1.48%.

For `CCOc1ccc(NC(=O)c2cnn3c(C(F)F)cc(-c4ccc(C)cc4)nc23)cc1`, the “activity change, negative = cytotoxicity” value was inactive: 23.3%.

`Cc1c(Cl)cccc1NC(=O)CN1C(=O)CSc2ccc(S(=O)(=O)N3CCCC3)cc21`: the “activity change, negative = cytotoxicity” value was inactive: -17.6%.

As to `O=c1cc(COc2cccc(C(F)(F)F)c2)nc2sc3c(n12)CCCC3`, the “activity change, negative = cytotoxicity” value was inactive: 9.83%.

In the case of `Cc1ccc(-n2ncc(C(=O)N3CCN(C4CCCCC4)CC3)c2C2CCN(C(=O)OC(C)(C)C)CC2)cc1`, the “activity change, negative = cytotoxicity” value is inactive: 3.84%.

As to `CCc1ccc(Sc2cc(C(=O)NCCCN3CCCC(C)C3)c3ccccc3n2)cc1` (configuration not stated), the “activity change, negative = cytotoxicity” value is inactive: -6.83%.

For the compound `Cc1ccccc1CCNCc1c(C(=O)O)c(C)n(Cc2c(F)cccc2Cl)c1C`, the “activity change, negative = cytotoxicity” value was inactive: -18%.

On to `CCCCCCNc1ncnc2c1sc1nc(N3CCOCC3)c3c(c12)CCCC3`, for which the “activity change, negative = cytotoxicity” value is inactive: 2.92%.

On to `COc1ccc(NC(=O)Cn2c(=O)n(CC3CCCO3)c(=O)c3ccccc32)cc1` (configuration not stated), for which the “activity change, negative = cytotoxicity” value is inactive: 10.5%.

Consider `CCCCSCCCNC(=O)c1cc(-c2cccnc2)nc2ccc(S(=O)(=O)N3CCC(C)CC3)cc12`, for which the “activity change, negative = cytotoxicity” value was inactive: -7.17%.

As for `O=C(Nc1ccc(Oc2ccccc2)cc1)C1CCN(S(=O)(=O)c2ccccc2)CC1`, the “activity change, negative = cytotoxicity” value is inactive: -1.05%.

On to `Cc1oc2ccc(O)c(CN3CCN(Cc4ccccc4)CC3)c2c1C(=O)Nc1cccc(Cl)c1C`, for which the “activity change, negative = cytotoxicity” value is inactive: 22.3%.

Regarding `CCCN(C(=O)c1nn(-c2ccc(C)cc2)c(=O)c2c1c1ccccc1n2C)c1ccccc1C`, the “activity change, negative = cytotoxicity” value was inactive: -4.89%.

As for `COc1ccc(Cl)cc1NC(=O)c1nc(S(C)(=O)=O)ncc1N(Cc1ccc(C)cc1)Cc1ccco1`, the “activity change, negative = cytotoxicity” value is inactive: 1.67%.

In the case of `Cc1cc2oc(C(=O)Nc3ccc(S(=O)(=O)Nc4onc(C)c4C)cc3)cc(=O)c2cc1C`, the “activity change, negative = cytotoxicity” value was inactive: -6.62%.

Turning to `Cc1ccc(C)c(NC(=O)Cn2c(=O)oc3cc(S(=O)(=O)NCc4ccccc4)ccc32)c1`, the “activity change, negative = cytotoxicity” value was inactive: -7.58%.

With `Cc1cccc(CNC(=O)c2ccc(Cn3c(SCc4ccccc4)nc4cccnc43)cc2)c1`, the “activity change, negative = cytotoxicity” value is inactive: -9.32%.

Turning to `CCc1ccc2oc(C(=O)Nc3nc(-c4ccccc4)ns3)c(C)c2c1`, the “activity change, negative = cytotoxicity” value is inactive: -0.502%.

In the case of `Cc1c(C(=O)N(C)C)sc2c1c(=O)n(-c1ccc(F)cc1)c(=O)n2CC(=O)N(C)c1ccccc1`, the “activity change, negative = cytotoxicity” value is inactive: 9.81%.

On to `COc1ccccc1CNC(=O)CCC1N=C2c3ccccc3N=C(SCC(=O)NCCc3ccccc3)N2C1=O` (configuration not stated), for which the “activity change, negative = cytotoxicity” value was inactive: 0.0328%.

Regarding `Cc1ccccc1C(=O)Nc1sc2c(c1C(=O)N1CCC(C)CC1)CCCC2`, the “activity change, negative = cytotoxicity” value was inactive: 7.6%.

Regarding `CCOC(=O)c1c(NC(=O)/C=C/c2ccc(OC)cc2)sc2c1CCC(C)C2` (configuration not stated), the “activity change, negative = cytotoxicity” value was inactive: 2.92%.

Regarding `O=C(CSc1nc(=O)[nH]c2c1CCCC2)NCc1ccc(Cl)cc1`, the “activity change, negative = cytotoxicity” value is inactive: 3.92%.

For the compound `Cc1cc2n(n1)CCCN2C(=O)Nc1cccc(C)c1C`, the “activity change, negative = cytotoxicity” value is inactive: 4.84%.

As for `Cc1cccc(Nc2nc3ccccc3n3c(N)nnc23)c1`, the “activity change, negative = cytotoxicity” value is inactive: 0.193%.

With `COc1cccc(N2CCN(c3ncc4c(n3)CCN(Cc3ccc(Br)cc3)C4)CC2)c1`, the “activity change, negative = cytotoxicity” value is inactive: -1.56%.
